Measurements as given in PubChem BioAssay AID1963576 (National Center for Advancing Translational Sciences (NCATS), 2024).
The whole screen tested about 46,000 compounds, of which about 60 (0.1%) were called active. About 3% were inconclusive and are not listed. Calls follow the shape of the dose curve; as a rule, active = well fitted inhibition curve with a large enough effect; inconclusive = small, poorly fitted or top-dose-only effect; inactive = no such curve, though single readings can be large or run the other way. Some of the results follow.

assay: Primary qHTS assay for Inhibitors of ovarian cancer metastasis using an organotypic tumor microenvironment (TME) model.; also: nearly all actives have a fitted effect of over 65% in size;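 as to activity change, negative = inhibition: plate controls were DMSO wells for no effect and tomatine positive control wells for full effect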; conditions: SKOV3ip1-GFP adhesion/invasion on 3D omental model, fluorescence; series mostly up to 45.8 µM; activity change, negative = inhibition: at the top concentration
Method in brief: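 Primary human omental fibroblast/mesothelial 3D culture pre-formed 48 h. SKOV3ip1-GFP cells added with compounds (0.36-46 umol/L), incubated 2 h RT/16 h 37 C, fixed; GFP cells quantified at 488/509 nm.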

SMILES	activity change, negative = inhibition	outcome
Cc1ccc(NC(=O)CCCn2c(=O)c3cccn3c3cccnc32)c(Cl)c1	inactive: -15.9%	–
CN(C)CCCNc1oc(/C=C/c2ccc(F)cc2)nc1C#N	inactive: -8.54%	–
CCN(CC)CCCNC(=O)c1cc(-c2ccc(OC)c(OC)c2)on1	–	inactive
Cc1ccc(NC(=O)Cn2c(=O)n(Cc3ccco3)c(=O)c3ccccc32)cc1	–	inactive
O=C(c1ccc2c(c1)OCCO2)N(Cc1cccnc1)c1nc2ccc(F)cc2s1	inactive: 8.37%	–
CCOc1ccc(CNC(=O)c2cc3c(=O)n(C)c4ccccc4c3s2)cc1	–	inactive
COc1cc(C(=O)NC2CC(=O)N(c3cccc(F)c3)C2)cc(OC)c1OC (stereo not drawn)	–	inactive
O=c1[nH]c(SCc2ccc(F)cc2)nc2c1CCCC2	inactive: 0.478%	–
O=C(Cn1cc(SCc2cccc(Cl)c2)c2ccccc21)N1CCOCC1	inactive: -22.5%	–
CC1CN(C(=O)N2CCC(C(=O)NC3CCCCCC3)CC2)c2cc(Cl)ccc2O1 (stereo not drawn)	inactive: 2.64%	–
Cc1cc(C)n2nc(CNS(=O)(=O)c3ccc(Cl)cc3)nc2n1	inactive: 1.71%	–
COc1ccc(-c2ccnc3c(-c4ccc(F)cc4)c(C)nn23)cc1OC	–	inactive
Cc1ccc(NC(=O)C2CCCN2S(=O)(=O)c2cccc3cccnc23)cc1 (stereo not drawn)	–	inactive
CCOc1ccc2nc(N3CCCC(C(=O)Nc4ccc(Br)c(C)c4)C3)sc2c1 (stereo not drawn)	–	inactive
COc1ccccc1N1CCN(S(=O)(=O)c2ccc(F)c(C(=O)Nc3ccc(C)c(F)c3)c2)CC1	inactive: -1.31%	–
COc1ccc(CNC(=O)C2CCCN(S(=O)(=O)c3ccc4c(c3)CCCN4C(C)=O)C2)cc1 (stereo not drawn)	inactive: 7.81%	–
CCc1nnc2c(NCc3ccc(F)cc3)nc3ccccc3n12	inactive: -0.113%	–
CCC(=O)N1CCc2cc(Br)cc(S(=O)(=O)N3CCN(c4ccccc4)CC3)c21	inactive: -9.54%	–
COc1ccc(NC(=O)c2ccco2)cc1NC(=O)COc1cc(C)cc(C)c1	inactive: 3.42%	–
CCOc1ccc(-c2n[nH]c3c2C(c2ccccc2OC)N(c2ccc(Br)cc2)C3=O)cc1 (stereo not drawn)	inactive: 10.3%	–
O=C(Nc1cc(Cl)cc(Cl)c1)c1ccc(F)c(S(=O)(=O)N2CCCCCC2)c1	–	inactive
Cc1ccc(C(C)C)c(OCCn2cc(C(=O)c3ccco3)c3ccccc32)c1	inactive: -14.9%	–
COc1ccccc1N1CCN(C(=O)c2oc3ccccc3c2NC(=O)C(C)Oc2ccccc2)CC1 (stereo not drawn)	inactive: 7.82%	–
COc1ccc2c(c1)CC(C(=O)N1CCC(C(N)=O)CC1)CO2 (stereo not drawn)	inactive: -2.87%	–

SMILES	activity change, negative = inhibition	outcome
COc1ccc(CCNC(=O)c2cc(Sc3cccc(Cl)c3)nc3ccccc23)cc1OC	inactive: 8.3%	–
COc1ccc2c(c1)NC(c1ccc(OCC(C)C)cc1)=NC(c1ccncc1)=N2	inactive: 2.3%	–
CCN(CC)c1ccc(NS(=O)(=O)c2ccc3c(c2)CCCN3C(C)=O)c(C)c1	inactive: 16.9%	–
COC(=O)c1cc2oc(C)cc2n1Cc1c(C)cc(C)cc1C	inactive: -0.817%	–
CN1C(C(=O)Nc2ccc(OC(F)(F)F)cc2)=CC(c2ccc3c(c2)OCO3)=NS1(=O)=O	inactive: -1.1%	–
O=C(Cn1cccc1C(=O)c1ccccc1)NCc1ccc(F)cc1	–	inactive
COc1cc2c(=O)n(Cc3ccccc3)c(=O)n(CC(=O)Nc3cc(C(F)(F)F)ccc3Cl)c2cc1OC	inactive: -5.63%	–
O=C(CSc1ncc2c(n1)-c1ccccc1N(Cc1ccc(F)cc1)S2(=O)=O)c1ccc(Br)cc1	inactive: -5.3%	–
Cc1ccc(NC(=O)C(=O)NCC(c2ccc3c(c2)OCO3)N2CCOCC2)c(C)c1 (stereo not drawn)	inactive: 4.5%	–
CCCN1CCN(CCNC(=O)Nc2cc(OC)cc(OC)c2)CC1	–	inactive
Cc1ccc(OC(=O)c2snnc2C)cc1C	inactive: 2.45%	–
COc1ccc(C2c3c(n(C)c4ccccc34)C(=O)N2CC(=O)Nc2ccc(Cl)cc2)cc1 (stereo not drawn)	–	inactive
CCOC(=O)c1c(C)oc2ncnc(NCCc3ccccc3)c12	inactive: -8.27%	–
CCc1ccc(N2CCn3c2nc2c3c(=O)n(Cc3cccc(C)c3)c(=O)n2C)cc1	inactive: -6.9%	–
CCc1ccc(Nc2cc(C)nc3nc(Cc4ccc(Cl)cc4)nn23)cc1	inactive: -5.74%	–
COc1ccc(OCC(=O)Nc2cc(-c3cccc(Cl)c3)nn2-c2ccccc2)cc1	inactive: -0.245%	–
Cc1cccc(NC(=O)CSc2nc3ccc(NC(=O)c4cccs4)cc3s2)c1	inactive: 0.637%	–
CC(C)c1ccc(OCc2cc(=O)n3c4c(sc3n2)CCCC4)cc1	inactive: -1.23%	–
COc1ccc(-c2oc3ncn4nc(-c5ccc(Cl)cc5)nc4c3c2-c2ccc(OC)cc2)cc1	inactive: 0.836%	–
COc1cc2c(cc1OC)C(c1ccc(Cl)cc1)N(c1ccc(C)c(F)c1)C(=O)C2 (stereo not drawn)	inactive: 7.98%	–
CCN(CC)CCN(C(=O)c1ccco1)c1nc2c(C)cccc2s1	inactive: 3.23%	–
N#Cc1ccc(C(=O)N2CCN(c3nc4ccc(F)cc4s3)CC2)cc1	inactive: 16.9%	–
O=C(NC1CCCCC1)c1ccc2c(c1)sc1nc(-c3ccccc3)cn12	inactive: 11%	–
CCOC(=O)c1ccc(CSc2nnc3cc(C)c4ccccc4n23)cc1	–	inactive
